Measurements taken from PubChem BioAssay AID686978 (National Center for Advancing Translational Sciences (NCATS), 2013).
Values joined by “and” are separate entries in the source; they are usually repeats but may differ in a detail not shown here. Identical values can stand only once. In all, about 420,000 compounds went through this assay and about 64,000 (15%) were called active. Inconclusive means that the source gave no clear call. Such entries were picked first, then a sample of the others. The call rests on the fitted dose curve; in most records, active means well fitted inhibition curve with a large enough effect; inconclusive means small, poorly fitted or top-dose-only effect; inactive means flat fitted curve, though single readings scatter. A potency beside an inconclusive call is a rough fit, not a confirmed value.

assay: qHTS for Inhibitors of human tyrosyl-DNA phosphodiesterase 1 (TDP1): qHTS in cells in absence of CPT; settings: DT40 Tdp1-/- hTDP1 cells, no CPT, ATP luminescence, 48 h; activity change, negative = growth inhibition: at 46.2 µM (top of the series); further: nearly all actives have a fitted effect of over 55% in size
In short: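 Camptothecin absent (DMSO only). Human TDP1-complemented DT40 knockout cells, 400 cells/well, 37 °C for minimum 48 hr; ATP measured via CellTiter-Glo, 30 min dark incubation, luminescence.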
On the % scale 0 is the no-effect control and ±100 the full control effect; potency means the concentration at half of the fitted maximal effect; tags describe the fitted curve by direction and shape.

Row | Structure (SMILES) | Potency | activity change, negative = growth inhibition
1 | O=C(CSc1cn(CCNC(=O)c2ccccc2F)c2ccccc12)Nc1ccccc1F | inconclusive: 20.6 µM [inhibitor, single point] | 
2 | c1cc(-c2nn[nH]n2)ccc1CN1CCCCC1 |  | inactive: -14.8%
3 | Cc1c(NC(=O)CC(C)C)cccc1-c1nc2cccnc2s1 | inconclusive: 25.9 µM [inhibitor, single point] | 
4 | CC(=O)c1ccc(N2CCN(C(=O)c3n[nH]c4ccccc34)CC2)cc1 | inconclusive: 23.1 µM [inhibitor, single point] | 
5 | N#C/C(=C(/O)COC(=O)CCCNC(=O)c1ccc(Cl)cc1)c1nc2ccccc2[nH]1 |  | inactive: -18.2%
6 | O=C(CSc1nc2c(sc3ccccc32)c(=O)n1CCCC(=O)NC1CCCC1)Nc1ccc(F)cc1 |  | inactive: -3.84%
7 | COc1cccc(-c2ncc3ccccc3c2COC(=O)N(C)C)c1 | active: 18.4 µM | 
8 | Cc1ccc(C2C3=C(NCCN=C3c3ccccc3)C(=O)N2c2ccccc2)cc1 (stereo not drawn) | active: 23.1 µM | 
9 | CS(=O)(=O)c1oc(-c2ccc(F)cc2)nc1S(=O)(=O)c1ccc(Cl)cc1 | active: 0.82 µM | 
10 | Cc1ccc(-c2cc(NC(=O)CSc3n[nH]c(N)n3)n(-c3ccccc3)n2)cc1 | inconclusive: 29.1 µM [inhibitor, single point] | 
11 | O=C(NCc1ccc(F)cc1)C1CCCN(c2ncnc3onc(-c4ccc(F)cc4)c23)C1 (stereo not drawn) | active: 16.4 µM | 
12 | CCCCOc1ccc(C(C)NC(=O)C2CCCN(S(=O)(=O)CC)C2)cc1 (stereo not drawn) | inconclusive: 23.1 µM [inhibitor, single point] | 
13 | Cc1c(Cl)cccc1NC(=S)Nc1ccc(S(=O)(=O)Nc2ncccn2)cc1 |  | inactive: -13.1%
14 | O=C(Nc1ccc(F)cc1F)N1CCCN(c2ccc(C(F)(F)F)cn2)CC1 | inconclusive: 16.4 µM [inhibitor, single point] | 
15 | COCCN(C(=O)COC(=O)c1ccc(-c2ccccc2)cc1)c1c(N)n(Cc2ccccc2)c(=O)[nH]c1=O | inconclusive: 29.1 µM [inhibitor, single point] | 
16 | COc1ccc(-c2cn(CC[C@@H]3CC[C@H](NC(=O)Cc4ccccn4)[C@@H](CO)O3)nn2)cc1 |  | inactive: -7.03%
17 | Cc1ccc(-n2ncc3c2CC(C)(C)CC3NC(=O)c2c(C)noc2C)cc1 (stereo not drawn) | inconclusive: 29.1 µM [inhibitor, single point] | 
18 | COc1ccccc1N(CC(O)COc1ccccc1)S(=O)(=O)c1ccccc1 (stereo not drawn) | inconclusive: 29.1 µM [inhibitor, single point] | 
19 | COc1ccc(NS(=O)(=O)c2cccc(NC(=O)c3ccc(S(=O)(=O)N4CCCCCC4)cc3)c2)cc1 | active: 2.59 µM | 
20 | CC1=C(C(=O)N2CCOCC2)CC(CC(=O)NCc2cccs2)C(=O)N1Cc1ccc(C(C)(C)C)cc1 (stereo not drawn) | inconclusive: 25.9 µM [inhibitor, single point] | 
21 | COc1ccc(C(C)(C)C)cc1NC(=O)Nc1ccc2c(c1)OCO2 | inconclusive: 16.4 µM [inhibitor, single point] | 
22 | O=C(/C=C/c1ccccc1)NC(NC(=S)Nc1ccc(Cl)cc1Cl)C(Cl)(Cl)Cl (stereo not drawn) | active: 18.4 µM | 
23 | Cc1ccc(Nc2c(-c3ccsc3)nc3cccc(C)n23)cc1 | inconclusive: 29.1 µM [inhibitor, single point] and inconclusive: 35.5 µM [inhibitor, single point] | 

Row | Structure (SMILES) | Potency | activity change, negative = growth inhibition
24 | CC(=O)Nc1ccc(/C(C)=N/NC(=O)c2ccncc2)cc1 |  | inactive: -24.1%
25 | CC1CCCCC1NC(=O)CN1C(=O)NC(C)(c2cc(F)ccc2F)C1=O (stereo not drawn) |  | inactive: -0.667%
26 | Cc1ccc(SC(C)C(=O)Nc2cccnc2)cc1 (stereo not drawn) | inconclusive: 29.1 µM [inhibitor, single point] | 
27 | CCC(=O)NCCC1CCc2ccc3c(c21)CCO3 (stereo not drawn) | inconclusive: 23.7 µM [inhibitor, single point] | 
28 | O=C1NC(=S)N(C(=O)c2ccc(F)cc2)/C1=C/c1cccnc1 |  | inconclusive: -31.5% [inhibitor]
29 | Cc1nn(C)cc1CN1CCCC(C(=O)c2ccc(-c3ccccc3)c(F)c2)C1 (stereo not drawn) | active: 18.4 µM | 
30 | O=C(CNS(=O)(=O)c1ccccc1)OCC(=O)c1ccc([N+](=O)[O-])cc1 | inconclusive: 7.31 µM [inhibitor, full curve, poor fit] | 
31 | COC(=O)c1ccc2c(=O)n(CC3CCCO3)c(SCC(=O)Nc3ccccc3OC)nc2c1 (stereo not drawn) | inconclusive: 29.1 µM [inhibitor, single point] | 
32 | CCc1nc2c(OCc3ccc(Cl)cc3)cccn2c1N(C)C(=O)c1cccs1 | inconclusive: 29.1 µM [inhibitor, single point] | 
33 | CCC(=O)c1ccc(OCC(=O)O)c(OC)c1 |  | inactive: -0.321%
34 | COc1ccccc1-c1noc2ncnc(Nc3cccc(C)c3C)c12 | inconclusive: 23.1 µM [inhibitor, single point] | 
35 | COc1cc(NC(=O)c2cc(C)nc3ccccc23)cc(OC)c1 |  | inactive: 2.26%
36 | COc1ccc(C(=O)Nc2cc(C)nn2-c2cccc(F)c2)cc1 | inconclusive: 18.4 µM [inhibitor, single point] | 
37 | CCCCC(C)Sc1nc2c([nH]1)c(=S)n(C)c(=O)n2C (stereo not drawn) | active: 5.17 µM | 
38 | COC(=O)[C@]1(CC(C)C)N[C@H](c2ccc(-c3ccc(Cl)c(Cl)c3)cc2)[C@@H]2C(=O)N(C)C(=O)[C@@H]21 | active: 18.4 µM | 
39 | CCOC(=O)N1CCN(C(=O)CN(Cc2ccc(Cl)cc2)S(=O)(=O)c2ccc(C)cc2)CC1 | inconclusive: 35.5 µM [inhibitor, single point] | 
40 | CCCCNC(=O)c1nc(C2CCN(S(=O)(=O)c3c(F)cccc3F)CC2)oc1-c1cccc(C(F)(F)F)c1 |  | inactive: -9.86%
41 | Cc1ccc(SCc2nc(N)nc(Nc3ccccc3C)n2)cc1C | inconclusive: 23.1 µM [inhibitor, single point] | 
42 | CCOC(=O)[C@]12CCCC=C1N(Cc1ccc3c(c1)OCO3)C(=O)[C@H](CC(=O)NCC1CCCCC1)C2 | inconclusive: 29.1 µM [inhibitor, single point] | 
43 | N#Cc1cncc(-c2ccc3c(c2)OCCOCCOCCOCCOCCO3)n1 | inconclusive: 11.6 µM [inhibitor, partial curve] | 
44 | COc1ccc(CC(=O)Nc2ccc(S(=O)(=O)N3CCC(C)CC3)cc2)c(OC)c1 | active: 8.2 µM | 
45 | CC(=O)c1cccc(NC(=O)Nc2ccc(C(=O)N3CCCC3)cc2)c1 | inconclusive: 18.4 µM [inhibitor, partial curve] | 
46 | CCOc1ccc2nc(Nc3nc4ccc(NC(C)=O)cc4s3)sc2c1 | active: 10.3 µM | 

Row | Structure (SMILES) | Potency | activity change, negative = growth inhibition
47 | O=C(NCCc1ccc(F)cc1)C(=O)Nc1cc2c3c(c1)CC(=O)N3CCC2 | inconclusive: 18.4 µM [inhibitor, single point] | 
48 | O=C(c1cc(-c2ccncc2)nc2ccc(Cl)cc12)N1CCN(C(=O)C2CCCO2)CC1 (stereo not drawn) | inconclusive: 11.6 µM [inhibitor, partial curve] | 
49 | CS(=O)(=O)c1ccc(N2CCN(S(=O)(=O)c3cccs3)CC2)c([N+](=O)[O-])c1 | inconclusive: 14.6 µM [inhibitor, partial curve, poor fit] | 
50 | COc1ccc(CCn2c(C3CCCCC3)nc3c(c(=O)c4ccccc4n3C)c2=O)cc1OC | inconclusive: 14.6 µM [inhibitor, single point] | 
51 | CC(C)CNc1nc(SCC(=O)Nc2ccccc2)nc(N2CCOCC2)n1 | inconclusive: 29.1 µM [inhibitor, single point] | 
52 | CC1(C(=O)Nc2cnc3ccccc3c2)CCN1Cc1ccccc1Cl (stereo not drawn) | active: 14.6 µM | 
53 | N#Cc1ccc2c(c1)NC(=O)C1CCCN21 (stereo not drawn) | inconclusive: 5.8 µM [inhibitor, single point] | 
54 | C=CCNC(=S)NCc1ccccc1OC |  | inactive: -14.6%
55 | Cc1cc(N/N=C/c2ccccc2F)nc(NCc2ccccc2)n1 | active: 11.6 µM | 
56 | CCOC(=O)C1=C[C@@H](C(C)C)N(S(=O)(=O)c2ccc(C)cc2)[C@H]1c1ccc(C(C)C)cc1 | active: 18.4 µM | 
57 | Cc1cc(C)nc(-n2nc(C)c3c(=O)[nH]c(C(F)(F)F)nc32)n1 | inconclusive: 1.03 µM [inhibitor, full curve] | 
58 | O=C(C(=O)N1CCC(Cc2ccccc2)CC1)c1ccccc1 | active: 16.4 µM | 
59 | CCOC(=O)C1CCCCN1C(=O)c1cc2ccc(OC)cc2c2cc(OC)c(OC)cc12 (stereo not drawn) | active: 18.4 µM | 
60 | COc1ccccc1NC(=O)C1=C(C)Nc2nc(SCc3ccc(Cl)cc3)nn2C1c1ccccc1Cl (stereo not drawn) | inconclusive: 23.1 µM [inhibitor, single point] | 
61 | CC(=O)Nc1cc(-c2ccc(N(C)C)cc2)cn2c(-c3ccc(F)cc3)cnc12 | inconclusive: 29.1 µM [inhibitor, single point] | 
62 | CC(NC(=O)C1CCN(C(=O)c2ccc(-n3ccc4ccccc43)s2)CC1)c1ccccc1 (stereo not drawn) | active: 18.4 µM | 
63 | C=CCN(c1ccccc1)S(=O)(=O)c1ccc2c(c1)NC(=O)C(C)C(=O)N2 (stereo not drawn) |  | inactive: 1.48%
64 | CCn1c(SCC(=O)N/N=C(/C)c2ccncc2)nc2ccccc21 | inconclusive: 23.1 µM [inhibitor, single point] | 
65 | COc1cc(C2CC(=O)Nc3cc(C)c(C)cc32)cc(OC)c1OC (stereo not drawn) | active: 11.6 µM | 
66 | COc1ccc(NC(=O)C23CC4CC(C2)CC(n2cnc(Br)n2)(C4)C3)c(OC)c1 | inconclusive: 16.4 µM [inhibitor, single point] | 
67 | O=C1CCCC(=O)N1c1ccc(NCCOCCO)c([N+](=O)[O-])c1 | inconclusive: 29.1 µM [inhibitor, partial curve, poor fit] | 
68 | Cc1ccc(NC(=O)Cn2nnc(-c3nc(-c4ccncc4)no3)c2N)c(C)c1 |  | inactive: 13%
